Assay results taken from the supplement of paper PMC9446081.
The whole screen tested about 39,000 compounds, of which about 220 (0.56%) showed activity. The list shows a part of the results.

Test system: Escherichia coli K-12 BW25113
Test: relative growth (OD600 normalised to plate interquartile mean) (fraction); higher = less growth inhibition, active = 0.2 or less
Settings: 50 µM; LB; incubation time: overnight (16-24 h)
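Also: static incubation at 37 °C against the wild-type strain, values averaged over two biological replicates.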

Compound	relative growth
Cc1ccc(S(=O)(=O)N2C[C@@H](O)COC[C@H]3O[C@H](CC(=O)NCc4ccccc4Cl)CC[C@@H]32)cc1	inactive: 0.999
CO[C@H]1CN(C)C(=O)c2ccc(NS(=O)(=O)CC(F)(F)F)cc2OC[C@@H](C)N(C(=O)NC(C)C)C[C@@H]1C	inactive: 1
O=S(=O)(NCC[C@@H]1CC[C@H](NS(=O)(=O)c2ccccc2Cl)[C@H](CO)O1)c1ccc(F)cc1	inactive: 1.05
NCC[C@@H]1CC[C@@H](NC(=O)C2CC2)[C@@H](CO)O1	inactive: 1.03
C[C@@H]1CCCCO[C@H](CN(C)C(=O)CCC(F)(F)F)[C@@H](C)CN([C@@H](C)CO)C(=O)c2cc(NC(=O)Nc3ccccc3)ccc2O1	inactive: 0.988
C[C@H]1CN([C@@H](C)CO)C(=O)c2cccc(NC(=O)Nc3cccc4ccccc34)c2O[C@H]1CN(C)CC1CCCCC1	inactive: 1
CCN(CC)S(=O)(=O)c1nnc[nH]1	inactive: 1
CC(C)NC(=O)Nc1cccc2c1O[C@@H](CN(C)S(=O)(=O)c1ccc(Cl)cc1)[C@@H](C)CN([C@H](C)CO)C2=O	inactive: 1
C[C@H]1CN([C@@H](C)CO)C(=O)CCCn2cc(nn2)CO[C@H]1CN(C)S(=O)(=O)c1ccc(-c2ccccc2)cc1	inactive: 0.994
C[C@H](CO)N1C[C@H](C)[C@@H](CN(C)S(=O)(=O)c2ccccc2)Oc2ccc(NS(C)(=O)=O)cc2C1=O	inactive: 0.994
COc1ccc(NC(=O)N(C)C[C@@H]2OCCCC[C@@H](C)Oc3ccc(NC(=O)CCCCCC(=O)Nc4ccccc4N)cc3C(=O)N([C@H](C)CO)C[C@@H]2C)cc1	inactive: 0.969
CCCC#Cc1ccc2c(c1)O[C@@H](CN(C)S(=O)(=O)c1cccc(F)c1)[C@H](C)CN([C@H](C)CO)S2(=O)=O	inactive: 1.04
C[C@@H]1CN([C@@H](C)CO)C(=O)c2cc(NS(C)(=O)=O)ccc2O[C@@H](C)CCCCO[C@@H]1CN(C)Cc1ccncc1	inactive: 1.02
COCCOC(=O)N1C(=O)[C@@]2(c3cc(C#Cc4ccc(OC)cc4)ccc31)[C@H](c1ccc(O)cc1)N1[C@H](c3ccccc3)[C@H](c3ccccc3)OC(=O)[C@H]1[C@@H]2C(=O)N1CCCCCCC1	inactive: 0.955
C[C@H](O)C#Cc1ccc2c(c1)O[C@H](CN(C)C(=O)Cc1ccccn1)[C@H](C)CN([C@@H](C)CO)S2(=O)=O	inactive: 1.01
NNC(=O)[C@H]1CCCNC1=O	inactive: 1.02
Cc1[nH]c(=O)[nH]c(=O)c1/C=C/C(=O)O	inactive: 1
